Results from PMC13083723 (Patterns, 2026).
In all, about 5,400 compounds went through this assay and about 190 (3.5%) showed an effect of 50% or more. The list shows a part of the results.

Each compound was assayed on Vero-E6 (assay: primary screen, phospholipidosis by LipidTOX staining; higher = more effect of the substance). Conditions: 10 µM.
Procedure, shortened: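 Single-concentration screen at 10 μM, with DMSO 0.1 v/v % and amiodarone 10 μM as controls. Read-out is LipidTOX Red phospholipid staining, which tolerates aldehyde fixation, in Vero-E6 cells.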
For CCCN1CCC[C@@H]2Cc3nc(N)ncc3C[C@H]21, the result_ITMP was 1.65%. Work on O=C(O)c1ccccc1O yielded a result_ITMP of 0.08%. CC1/C=C/C=C/C=C/C=C/C=C/C=C/C=C/C(OC2O[C@H](C)[C@@H](O)[C@H](N)[C@@H]2O)CC(O)C(C(=O)O)C(O)CC(=O)CC(O)CC(O)CC(O)CC(=O)CCCC(=O)CC(=O)OC1C(C)CC(C)C(O)CC(=O)c1ccc(N)cc1 (stereo partly shown) showed a result_ITMP of -4.6%. With CSc1ccc(C(=O)N[C@@H]2CCCC[C@@H]2NC(=O)CNC(=O)c2cc(C(F)(F)F)ccc2NC(=O)NC(C)C)cc1 the result_ITMP was -1.71%. C[C@H](NC(=O)CCc1nc2ccccc2c(=O)[nH]1)c1ccccc1 [R4A_0003503_001 / SPE_K24283677] was tested, and the result_ITMP was -1.61%. Work on CCOC(=O)c1cnc2c(cnn2CC)c1NN=C(C)C yielded a result_ITMP of -1.97%. With C[C@@H]1C[C@H]2[C@@H]3CCC4=CC(=O)C=C[C@]4(C)[C@@]3(Cl)[C@@H](O)C[C@]2(C)[C@@]1(OC(=O)c1ccco1)C(=O)CCl the result_ITMP was -4.87%. Compound CN1CCCN(C(c2ccccc2)c2ccc(Cl)cc2)CC1 (stereo not shown) has a result_ITMP of 82.5%. CCOC(=O)[C@H](CCc1ccccc1)N[C@@H](C)C(=O)N1C(=O)N(C)C[C@H]1C(=O)O gave a result_ITMP of 1.23%. For CS(=O)(=O)c1ccc(-c2nnc(/C=C/c3nnc(-c4ccc(C#N)cc4)o3)n2-c2ccccc2Cl)nc1, the result_ITMP was -0.08%. N[C@H](C(=O)O)c1ccc(O)cc1 showed a result_ITMP of 0.07%. For CCOc1ccc2nc(S(N)(=O)=O)sc2c1, the result_ITMP was 6.44%. With Cc1ncc(C[n+]2csc(CCOP(=O)(O)OP(=O)(O)O)c2C)c(N)n1 the result_ITMP was -2.57%. Compound CC[C@H](CO)Nc1nc(NCc2ccccc2)c2ncn(C(C)C)c2n1 has a result_ITMP of 2.12%. For CCc1nc(C)ccc1O, the result_ITMP was -4.78%. In the case of OCCN(CCO)c1nc(N2CCCCC2)c2nc(N(CCO)CCO)nc(N3CCCCC3)c2n1, the result_ITMP is reported as -1.93%. Work on Cc1ccc(NC(=O)c2cccc(C(C)(C)C#N)c2)cc1Nc1ccc2ncn(C)c(=O)c2c1 yielded a result_ITMP of -0.37%. For O=c1[nH]c2ccccc2n1CCCN1CCC(n2c(=O)[nH]c3cc(Cl)ccc32)CC1, the result_ITMP was 1.97%. O=C(O)c1ccccc1C(=O)Nc1ccc(S(=O)(=O)Nc2nccs2)cc1 was tested, and the result_ITMP was -2.23%. For O=S(=O)([O-])c1ccc(O)cc1, the result_ITMP was -0.61%. For CN(c1nccc(=O)[nH]1)C1CCN(c2nc3ccccc3n2Cc2ccc(F)cc2)CC1, the result_ITMP was 0.52%. For CCS(=O)(=O)N1CCC[C@@H]2CN3CCc4cc(OC)ccc4[C@@H]3C[C@@H]21, the result_ITMP was -5.32%. With Cc1ccc(F)c(NC(=O)Nc2ccc(-c3cccc4[nH]nc(N)c34)cc2)c1 the result_ITMP was 9.27%. Work on O=c1onc2cnc3ccccc3n12 yielded a result_ITMP of -4.06%. Compound C[C@]12CC[C@@H]3c4ccc(OC(=O)c5ccccc5)cc4CC[C@H]3[C@@H]1CC[C@@H]2O has a result_ITMP of -1.67%. O=C(/C=C\n1cnc(-c2cc(C(F)(F)F)cc(C(F)(F)F)c2)n1)N1CC(F)(F)C1 was tested, and the result_ITMP was -11.5%. For O=C(O)Cc1ccc(CCNS(=O)(=O)c2ccc(Cl)cc2)cc1, the result_ITMP was -3.05%. CN(CC(=O)O)C(=N)N showed a result_ITMP of -3.9%. NC(=O)c1nnn(Cc2cc(Cl)c(C(=O)c3ccc(Cl)cc3)c(Cl)c2)c1N showed a result_ITMP of -4.77%. CN1CCN(C(c2ccccc2)c2ccccc2)CC1 showed a result_ITMP of 16.1%. CC(C)OC(=O)C1=CN(C(=O)c2ccc(F)c(F)c2)CC(C)(C)c2c1[nH]c1ccccc21 was tested, and the result_ITMP was -4.6%. Compound COC(=O)[C@@H]1CC2=CC(=O)CC[C@]2(C)[C@@]23O[C@@H]2C[C@@]2(C)[C@@H](CC[C@@]24CCC(=O)O4)[C@H]13 has a result_ITMP of -1.87%. For Cc1cccc(C)c1NC(=O)/N=C1\CCCN1C, the result_ITMP was -2.86%. Compound C[C@H](Cc1ccc(OCC(=O)[O-])cc1)NC[C@H](O)c1cccc(Cl)c1 has a result_ITMP of -1.85%. Work on C=C[C@@]1(C)CC(=O)[C@]2(O)[C@@]3(C)[C@@H](O)CCC(C)(C)[C@@H]3C(OC(=O)CCN(C)C)C(OC(C)=O)[C@@]2(C)O1 (stereo partly shown) yielded a result_ITMP of 4.63%. Compound Cc1n[nH]c2ccc(-c3cncc(OC[C@@H](N)Cc4ccccc4)c3)cc12 has a result_ITMP of 17.2%. Compound Cc1c(-c2cnccn2)ssc1=S has a result_ITMP of -6.92%. N#Cc1cnc2cnc(NCc3cccnc3)cc2c1Nc1ccc(F)c(Cl)c1 showed a result_ITMP of -2.18%. S=C([S-])N1CCCC1 was tested, and the result_ITMP was -0.32%. Cc1cc(C)c(S(=O)(=O)Nc2ccccc2C(F)(F)F)c(C)c1 gave a result_ITMP of -1.24%. With O=c1[nH]c2ccccc2n1CCCN1CCN(C(c2ccccc2)c2ccccc2)CC1 the result_ITMP was 26.4%. Compound Nc1nc(Cl)nc2c1ncn2[C@@H]1O[C@H](CO)[C@@H](O)[C@H]1O has a result_ITMP of 1.94%. CCC(Oc1ccc(Cl)cc1)C(=O)OC1CC2CCC(C1)N2C (stereo not shown) showed a result_ITMP of 24.8%. Work on O=c1c(O[C@@H]2O[C@H](CO)[C@H](O)[C@H](O)[C@H]2O)c(-c2ccc(O)c(O)c2)oc2cc(O)cc(O)c12 yielded a result_ITMP of -4.4%. COc1cc(COc2cc(N)c(Cl)cc2C(=O)CCC2CCN(CCNS(C)(=O)=O)CC2)cc(OC)c1 showed a result_ITMP of 23.6%. Work on CC(C)[C@H](CO)Nc1nc(Nc2ccc(C(=O)O)c(Cl)c2)c2ncn(C(C)C)c2n1 yielded a result_ITMP of -1.36%. CC(C)[N+](C)(CCC(C(N)=O)(c1ccccc1)c1ccccc1)C(C)C gave a result_ITMP of -2.21%. Oc1c(I)cc(I)c(O)c1I gave a result_ITMP of -3.72%. Compound COc1ccc(-n2c(SCCCN3C(=O)c4cccc5cccc(c45)C3=O)nnc2-c2ccncc2)cc1 has a result_ITMP of -1.09%. CCCN(C/C=C/I)C1CCc2cccc(O)c2C1 (stereo not shown) was tested, and the result_ITMP was 2.65%. Work on C[N+]1([O-])[C@@H]2C[C@@H](OC(=O)[C@H](CO)c3ccccc3)C[C@H]1[C@@H]1O[C@@H]12 (stereo partly shown) yielded a result_ITMP of -4.04%. For CCCN(CCC)C(=O)C(CCC(=O)[O-])NC(=O)c1ccccc1 (stereo not shown), the result_ITMP was -3.27%. Cc1cccc(CC(=O)N2CCc3c2ccc(-c2cn(C)c4ncnc(N)c24)c3F)n1 gave a result_ITMP of -7.01%. COc1cccc(Nc2ncnn3ccc(CN4CC[C@@H](N)[C@H](O)C4)c23)c1 showed a result_ITMP of 59%. With CCN(CC)CCNC(C(=O)OCCC(C)C)c1ccccc1 (stereo not shown) the result_ITMP was 13.7%.
